# According to paper PMC9418238:
# The chains behind the UniProt entries cited, without tags or fusion partners.
# UniProt Q8N884: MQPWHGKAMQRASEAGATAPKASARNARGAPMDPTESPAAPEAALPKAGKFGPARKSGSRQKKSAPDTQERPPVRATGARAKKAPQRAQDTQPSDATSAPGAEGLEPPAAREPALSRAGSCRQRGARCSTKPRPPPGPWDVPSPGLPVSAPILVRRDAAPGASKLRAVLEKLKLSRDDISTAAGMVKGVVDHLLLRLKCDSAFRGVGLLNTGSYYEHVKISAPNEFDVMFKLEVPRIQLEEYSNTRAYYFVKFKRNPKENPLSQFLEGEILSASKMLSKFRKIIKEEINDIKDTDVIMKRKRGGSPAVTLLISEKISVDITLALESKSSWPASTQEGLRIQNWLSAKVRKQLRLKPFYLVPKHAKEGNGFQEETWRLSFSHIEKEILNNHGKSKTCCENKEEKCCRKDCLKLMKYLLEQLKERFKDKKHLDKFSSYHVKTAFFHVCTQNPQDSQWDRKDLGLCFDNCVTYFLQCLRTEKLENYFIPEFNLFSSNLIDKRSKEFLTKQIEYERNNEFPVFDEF
# UniProt Q7Z434: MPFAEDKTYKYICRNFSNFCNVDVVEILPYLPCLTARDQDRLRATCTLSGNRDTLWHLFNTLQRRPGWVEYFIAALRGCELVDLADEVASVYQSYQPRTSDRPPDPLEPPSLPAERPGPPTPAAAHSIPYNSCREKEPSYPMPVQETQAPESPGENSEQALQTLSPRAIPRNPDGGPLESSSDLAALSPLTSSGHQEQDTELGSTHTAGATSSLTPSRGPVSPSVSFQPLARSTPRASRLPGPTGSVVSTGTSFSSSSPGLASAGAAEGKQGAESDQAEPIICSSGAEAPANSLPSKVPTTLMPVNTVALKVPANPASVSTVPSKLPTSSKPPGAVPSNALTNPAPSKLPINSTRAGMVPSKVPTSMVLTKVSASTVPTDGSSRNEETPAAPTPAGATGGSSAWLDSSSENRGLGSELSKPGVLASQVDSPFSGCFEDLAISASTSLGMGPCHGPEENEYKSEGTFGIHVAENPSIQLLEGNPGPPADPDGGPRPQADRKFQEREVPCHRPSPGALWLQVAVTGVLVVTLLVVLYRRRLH
# These are yes or no findings as the source states them, for the method shown. For some of these results: In cells and extracts the contact can be indirect. Some results given as binding are weak or reduced against the parent protein; the word gives no strength. For some of these results: Tags and fused reporters may be left off the sequences shown.
# B1: GFP-PRMT9 (protein arginine methyltransferase 9) (enzyme, UniProt Q6P2P2-1 1-845)
# chain: MSNSRPRSRRDAGGGAGAAGRDELVSRSLQSAEHCLGVQDFGTAYAHYLLVLSLAPELKHDVKETFQYTLFRWAEELDALSRIQDLLGCYEQALELFPDDEVICNSMGEHLFRMGFRDEAAGYFHKAVKLNPDFSDAKENFYRVANWLVERWHFIMLNDTKRNTIYNAAIQKAVCLGSKSVLDIGAGTGILSMFAKKAGAHSVYACELSKTMYELACDVVAANKMEAGIKLLHTKSLDIEIPKHIPERVSLVVTETVDAGLFGEGIVESLIHAWEHLLLQPKTKGESANCEKYGKVIPASAVIFGMAVECAEIRRHHRVGIKDIAGIHLPTNVKFQSPAYSSVDTEETIEPYTTEKMSRVPGGYLALTECFEIMTVDFNNLQELKSLATKKPDKIGIPVIKEGILDAIMVWFVLQLDDEHSLSTSPSEETCWEQAVYPVQDLADYWIKPGDHVMMEVSCQDCYLRIQSISVLGLECEMDVAKSFTQNKDLLSLGNEAELCSALANLQTSKPDAVEQTCILESTEIALLNNIPYHEGFKMAMSKVLSSLTPEKLYQTMDTHCQNEMSSGTGQSNTVQNILEPFYVLDVSEGFSVLPVIAGTLGQVKPYSSVEKDQHRIALDLISEANHFPKETLEFWLRHVEDESAMLQRPKSDKLWSIIILDVIEPSGLIQQEIMEKAAISRCLLQSGGKIFPQYVLMFGLLVESQTLLEENAVQGTERTLGLNIAPFINQFQVPIRVFLDLSSLPCIPLSKPVELLRLDLMTPYLNTSNREVKVYVCKSGRLTAIPFWYHMYLDEEIRLDTSSEASHWKQAAVVLDNPIQVEMGEELVLSIQHHKSNVSITVKQ
# B2: endogenous MAVS of mouse peritoneal macrophages, Q8VCF0 1-503 (protein)
# chain: MTFAEDKTYKYIRDNHSKFCCVDVLEILPYLSCLTASDQDRLRASYRQIGNRDTLWGLFNNLQRRPGWVEVFIRALQICELPGLADQVTRVYQSYLPPGTSLRSLEPLQLPDFPAAVSGPSAFAPGHNIPDHGLRETPSCPKPVQDTQPPESPVENSEQLLQTNSGAVARMSGGSLIPSPNQQALSPQPSREHQEQEPELGGAHAANVASVPIATYGPVSPTVSFQPLPRTALRTNLLSGVTVSALSADTSLSSSSTGSAFAKGAGDQAKAATCFSTTLTNSVTTSSVPSPRLVPVKTMSSKLPLSSKSTAAMTSTVLTNTAPSKLPSNSVYAGTVPSRVPASVAKAPANTIPPERNSKQAKETPEGPATKVTTGGNQTGPNSSIRSLHSGPEMSKPGVLVSQLDEPFSACSVDLAISPSSSLVSEPNHGPEENEYSSFRIQVDESPSADLLGSPEPLATQQPQEEEEHCASSMPWAKWLGATSALLAVFLAVMLYRSRRLAQ
# Columns and labels:
# HA-cGAS = HA-cGAS (UniProt Q8N884); test: co-IP; HEK293T cells cotransfected with GFP-PRMT9 and the HA- or Myc-tagged adaptor; IP-buffer 150 mM NaCl, 1% NP-40, 10 mM Tris-HCl, 1 mM EDTA; immunoblot
# [1] = target: HA-MAVS (mitochondrial antiviral signaling protein) (human) (UniProt Q7Z434); test: as above
# HA-RIG-I = target: T1, HA-RIG-I (UniProt O95786); test: as above
# T1 sequence: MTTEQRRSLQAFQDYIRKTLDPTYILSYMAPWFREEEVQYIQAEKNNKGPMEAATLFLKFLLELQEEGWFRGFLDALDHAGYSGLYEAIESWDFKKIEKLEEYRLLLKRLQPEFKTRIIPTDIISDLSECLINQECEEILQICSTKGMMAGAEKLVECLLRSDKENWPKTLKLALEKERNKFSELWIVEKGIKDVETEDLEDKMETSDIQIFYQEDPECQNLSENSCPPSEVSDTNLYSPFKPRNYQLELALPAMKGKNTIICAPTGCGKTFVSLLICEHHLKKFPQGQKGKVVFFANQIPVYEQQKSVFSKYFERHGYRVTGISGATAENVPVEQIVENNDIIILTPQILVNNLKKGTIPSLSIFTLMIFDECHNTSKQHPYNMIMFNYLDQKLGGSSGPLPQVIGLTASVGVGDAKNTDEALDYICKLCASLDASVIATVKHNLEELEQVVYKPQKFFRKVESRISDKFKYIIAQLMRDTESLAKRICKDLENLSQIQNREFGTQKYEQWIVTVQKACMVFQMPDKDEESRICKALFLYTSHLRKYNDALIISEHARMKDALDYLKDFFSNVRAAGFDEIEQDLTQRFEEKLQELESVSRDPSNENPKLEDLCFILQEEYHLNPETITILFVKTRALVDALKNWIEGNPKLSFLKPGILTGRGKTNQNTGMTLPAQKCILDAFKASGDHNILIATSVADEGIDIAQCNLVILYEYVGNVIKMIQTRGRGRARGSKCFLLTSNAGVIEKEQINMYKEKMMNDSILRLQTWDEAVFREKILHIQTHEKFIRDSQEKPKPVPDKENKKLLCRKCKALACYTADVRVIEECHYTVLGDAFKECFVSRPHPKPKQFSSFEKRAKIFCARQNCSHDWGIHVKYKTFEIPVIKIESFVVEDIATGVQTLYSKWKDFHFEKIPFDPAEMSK
# [2] = target: T2, HA-TBKI (TANK-binding kinase 1) (UniProt Q9UHD2); test: as above
# T2 sequence: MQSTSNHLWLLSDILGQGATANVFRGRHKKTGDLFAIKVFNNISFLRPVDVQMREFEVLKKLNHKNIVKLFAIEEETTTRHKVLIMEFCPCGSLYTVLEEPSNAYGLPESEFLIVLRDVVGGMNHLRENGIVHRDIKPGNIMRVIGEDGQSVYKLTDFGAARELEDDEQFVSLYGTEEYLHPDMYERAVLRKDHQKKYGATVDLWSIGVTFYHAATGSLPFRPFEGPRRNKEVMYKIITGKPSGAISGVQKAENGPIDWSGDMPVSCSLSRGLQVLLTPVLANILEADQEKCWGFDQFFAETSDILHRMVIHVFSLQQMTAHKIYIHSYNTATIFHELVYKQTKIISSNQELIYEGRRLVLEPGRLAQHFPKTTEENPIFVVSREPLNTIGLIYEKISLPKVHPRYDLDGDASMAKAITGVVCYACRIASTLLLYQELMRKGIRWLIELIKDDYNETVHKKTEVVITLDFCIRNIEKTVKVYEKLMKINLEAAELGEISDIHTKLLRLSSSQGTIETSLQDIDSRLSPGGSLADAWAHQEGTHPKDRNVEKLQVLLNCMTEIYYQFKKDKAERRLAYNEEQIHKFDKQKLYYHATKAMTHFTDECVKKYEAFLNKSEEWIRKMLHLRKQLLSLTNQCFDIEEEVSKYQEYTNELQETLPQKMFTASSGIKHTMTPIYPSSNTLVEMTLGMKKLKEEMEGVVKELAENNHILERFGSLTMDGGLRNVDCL
# Myc-IRF3 = target: T3, Myc-IRF3 (UniProt Q14653); test: as above
# T3 sequence: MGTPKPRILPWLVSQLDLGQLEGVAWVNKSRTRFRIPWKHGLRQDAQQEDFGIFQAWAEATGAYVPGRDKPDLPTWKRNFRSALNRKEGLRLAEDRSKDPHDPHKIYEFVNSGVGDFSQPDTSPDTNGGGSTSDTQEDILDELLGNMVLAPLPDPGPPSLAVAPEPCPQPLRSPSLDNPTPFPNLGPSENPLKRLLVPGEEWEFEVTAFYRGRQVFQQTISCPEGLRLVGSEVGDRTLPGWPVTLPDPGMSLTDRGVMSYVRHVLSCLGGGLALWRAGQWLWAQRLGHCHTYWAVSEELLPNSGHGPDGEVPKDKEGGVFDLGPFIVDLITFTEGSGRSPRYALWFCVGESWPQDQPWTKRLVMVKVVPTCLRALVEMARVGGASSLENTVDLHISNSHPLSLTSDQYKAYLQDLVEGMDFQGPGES
# Myc-MDA5 = target: T4, Myc-MDA5 (UniProt Q9BYX4); test: as above
# T4 sequence: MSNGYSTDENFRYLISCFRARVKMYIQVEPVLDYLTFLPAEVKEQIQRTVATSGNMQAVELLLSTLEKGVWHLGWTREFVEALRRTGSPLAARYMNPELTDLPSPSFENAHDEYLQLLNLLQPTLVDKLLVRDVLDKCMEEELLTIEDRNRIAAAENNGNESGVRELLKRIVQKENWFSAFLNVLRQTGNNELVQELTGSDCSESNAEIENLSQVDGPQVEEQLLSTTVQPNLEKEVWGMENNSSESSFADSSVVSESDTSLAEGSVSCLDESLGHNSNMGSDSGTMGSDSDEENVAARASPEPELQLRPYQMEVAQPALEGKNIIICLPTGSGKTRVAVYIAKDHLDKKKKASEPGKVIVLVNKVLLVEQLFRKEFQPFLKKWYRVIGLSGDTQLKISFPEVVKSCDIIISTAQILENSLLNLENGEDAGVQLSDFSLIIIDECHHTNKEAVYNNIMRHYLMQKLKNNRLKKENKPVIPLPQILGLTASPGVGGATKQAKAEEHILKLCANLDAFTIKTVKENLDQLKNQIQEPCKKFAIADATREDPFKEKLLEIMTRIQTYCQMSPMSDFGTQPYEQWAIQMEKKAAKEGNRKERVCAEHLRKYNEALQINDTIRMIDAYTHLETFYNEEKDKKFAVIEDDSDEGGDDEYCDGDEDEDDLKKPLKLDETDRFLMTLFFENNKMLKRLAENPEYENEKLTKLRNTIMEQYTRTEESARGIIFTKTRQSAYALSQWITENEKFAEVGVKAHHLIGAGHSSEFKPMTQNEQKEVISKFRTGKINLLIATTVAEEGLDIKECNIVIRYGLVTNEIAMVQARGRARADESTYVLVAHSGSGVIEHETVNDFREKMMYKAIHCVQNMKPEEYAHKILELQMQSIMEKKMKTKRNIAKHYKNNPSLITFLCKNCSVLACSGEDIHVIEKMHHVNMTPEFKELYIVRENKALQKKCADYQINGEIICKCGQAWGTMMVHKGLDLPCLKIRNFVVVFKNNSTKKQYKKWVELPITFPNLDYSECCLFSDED
# [3] = target: T5, endogenous MAVS of mouse peritoneal macrophages (mouse (endogenous in peritoneal macrophages)), Q8VCF0; test: semi-denaturing detergent agarose gel electrophoresis (SDD-AGE); crude mitochondria of mouse peritoneal macrophages infected with SeV for 0-8 h; endogenous MAVS; conditions: remark: other sources report otherwise
# T5 chain: B2 chain
Binder,binding (HA-cGAS),binding [1],binding (HA-RIG-I),binding [2],binding (Myc-IRF3),binding (Myc-MDA5),binding [3]
B1,no binding,binds,no binding,no binding,no binding,no binding,–
B2,–,–,–,–,–,–,binds
